{"source": "the supplement of paper PMC11417369", "note": "± gives the standard deviation of the averaged measurements. The list shows a part of the results.", "data": [{"system": "PfAP2-LT AP2 domain (GST-tagged)", "test": "gcPBM binding intensity (ln(normalized median fluorescence intensity)); higher = stronger DNA binding", "outline": "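GST-tagged P. falciparum DNA-binding domains, expressed in E. coli (about 25 μg on average), were applied for 1 h to an Agilent 4 × 180k array of primer-extended double-stranded 36-bp intergenic genomic probes plus negative controls. The binding buffer was 1× PBS with 1% milk, 0.2 mg/ml BSA, 0.5% salmon testes DNA and 0.03% Triton X-100. Bound protein was detected with Alexa488 anti-GST antibody and scanned at 488 nm. Binding intensity is the highest Masliner-normalised natural-log median intensity across replicate spots of either probe orientation.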", "values": [{"sequence": "CAAGAAAAGAAACACACACACATATATATATATATA [CACACA_site3881]", "gcPBM binding intensity (ln)": "10.4 ± 0.28"}, {"sequence": "TATATATATATATGTGCACACATAATAAAAAAAAAA [CACACA_site3830]", "gcPBM binding intensity (ln)": "9.71 ± 0.23"}, {"sequence": "ATTTTAGATGAAAAAGCACACAACATATATATATAT [CACACA_site2295]", "gcPBM binding intensity (ln)": "9.44 ± 0.38"}, {"sequence": "ATTCTTTTTTTTTGGAAATGTATTTTTATGTTTTGT [TGCATGCA_negctrl_site426]", "gcPBM binding intensity (ln)": "8.76 ± 0.51"}, {"sequence": "TTGCCCATTTCATTAACACACAAATGTTTATATTCT [CACACA_site4569]", "gcPBM binding intensity (ln)": "9.09 ± 0.43"}, {"sequence": "TTAACTCAAGAGTGTACACATATATATATATATATA [CACACA_site4334]", "gcPBM binding intensity (ln)": "9.96 ± 0.28"}, {"sequence": "AATACCCATTTTAGTACACACTTAAAAAATTATTTT [CACACA_site5611]", "gcPBM binding intensity (ln)": "8.69 ± 0.44"}, {"sequence": "TATATTTTTTAAAAAGCATGCAAAAAATAATGATCA [TGCATGCA_site48]", "gcPBM binding intensity (ln)": "8.64 ± 0.35"}, {"sequence": "ACGTTGAAGAAATACACATGCATATTCTATATATAT [TGCATGCA_site76]", "gcPBM binding intensity (ln)": "8.91 ± 0.4"}, {"sequence": "GTATAATATGAACACACACACACACGCAAAAAAAAA [CACACA_site7036]", "gcPBM binding intensity (ln)": "10.19 ± 0.064"}, {"sequence": "TCATTTTATTTTTTCACACACACATATATATATATA [CACACA_site3333]", "gcPBM binding intensity (ln)": "9.54 ± 0.26"}, {"sequence": "CTCTTATGCTAGGAAGTGCAATAGTATGGGTACCAC", "gcPBM binding intensity (ln)": "8.59 ± 0.45"}, {"sequence": "TAATATATATAAACATGTACAAATCAAAAACAAAAG [XGTACX_site4076]", "gcPBM binding intensity (ln)": "9.07 ± 0.47"}, {"sequence": "ATTTATTTTTATATAACACACAAAGTATAATATAAC [CACACA_site3582]", "gcPBM binding intensity (ln)": "8.63 ± 0.4"}, {"sequence": "ATATATTTATATTTATGTACATATCTTTATTTACGT [XGTACX_site6800]", "gcPBM binding intensity (ln)": "9.11 ± 0.51"}, {"sequence": "ATATATATATCGATCTGTACATATATTTATAGACAT [XGTACX_site4236]", "gcPBM binding intensity (ln)": "8.97 ± 0.45"}, {"sequence": "TGTAAAACTGAAAAGGGTACATATAAATATATATAT [XGTACX_site69]", "gcPBM binding intensity (ln)": "8.88 ± 0.42"}, {"sequence": "AAAGAAATACAATGATGTACATTTAAAAAAAATTAA [XGTACX_site4324]", "gcPBM binding intensity (ln)": "8.7 ± 0.62"}, {"sequence": "ACAAGAAAATATATTTGTACATATATAATTTTATTT [XGTACX_site548]", "gcPBM binding intensity (ln)": "8.6 ± 0.35"}, {"sequence": "ATTAGTAAGAATCATTGTACATTATAATATGTGGTA [XGTACX_site1341]", "gcPBM binding intensity (ln)": "8.84 ± 0.32"}, {"sequence": "TTTTTAAAAAAGTAAAGTACAAAAAAAAGGAATATC [XGTACX_site588]", "gcPBM binding intensity (ln)": "8.91 ± 0.7"}, {"sequence": "TGCTTCCTTAGGAATGTACACACATATATAATATGT [CACACA_site8048]", "gcPBM binding intensity (ln)": "9.28 ± 0.35"}, {"sequence": "TTACATATTTTTTAACGTACATAAATATATATGTAT [XGTACX_site8406]", "gcPBM binding intensity (ln)": "8.69 ± 0.42"}, {"sequence": "TTAAATAAAAAAATAACACACATATAAATATATATG [CACACA_site3175]", "gcPBM binding intensity (ln)": "8.78 ± 0.39"}, {"sequence": "ACTCAAACCTTTAGAGTGCAAAAAAAAAAAAAAAAA [GTGCAC_site9952]", "gcPBM binding intensity (ln)": "8.46 ± 0.43"}, {"sequence": "TTGTAAAAATTAATACATATATATATATATATATAT [CACACA_negctrl_site6]", "gcPBM binding intensity (ln)": "9.53 ± 0.16"}, {"sequence": "ATATATTTGATTTACACACTTACAATGTATATAAAT [CACACA_site2993]", "gcPBM binding intensity (ln)": "8.84 ± 0.38"}, {"sequence": "AAAGAAATAAGGTGCACACATATACAGATATATATA [CACACA_site4399]", "gcPBM binding intensity (ln)": "9.4 ± 0.47"}, {"sequence": "CTCTTTTTTTGCAAAAGTACAAATGGGGATATATTT [XGTACX_site5813]", "gcPBM binding intensity (ln)": "8.84 ± 0.32"}, {"sequence": "GCATTATTTACCACAACACACAAATATTTACCAATC [CACACA_site2669]", "gcPBM binding intensity (ln)": "9.07 ± 0.29"}, {"sequence": "TAATTTCATCATATTTGTTCCTTCTCAAAATTTTTT [CACACA_negctrl_site217]", "gcPBM binding intensity (ln)": "8.56 ± 0.57"}, {"sequence": "TTCCTAAGAATAATCAGTACACATAAAAAGAACATA [XGTACX_site7861]", "gcPBM binding intensity (ln)": "8.69 ± 0.38"}, {"sequence": "ACTATATATTTAATATGTACACATATTTCTGTCGAT [XGTACX_site6878]", "gcPBM binding intensity (ln)": "9.09 ± 0.42"}, {"sequence": "ATAATTATCATAGGATGTACATATTTATTTTGTATA [XGTACX_site7797]", "gcPBM binding intensity (ln)": "8.79 ± 0.38"}, {"sequence": "ATATGTTAAATTATTCGTACGTAAAAAAAAATGGAT [XGTACX_site3465]", "gcPBM binding intensity (ln)": "8.81 ± 0.37"}, {"sequence": "AAAAAGGGTATTATTACACACACGTAAATATTAATA [CACACA_site101]", "gcPBM binding intensity (ln)": "9.14 ± 0.44"}, {"sequence": "AGATTTATACAAATATGTACACACTAAATATATATT [XGTACX_site864]", "gcPBM binding intensity (ln)": "8.96 ± 0.4"}, {"sequence": "CTTTTTTTAATATGCACACATATATTTTATATATTA [CACACA_site2077]", "gcPBM binding intensity (ln)": "8.9 ± 0.42"}, {"sequence": "ATTAGGATATATTAAAGTACTAATATAATACATTTT [XGTACX_site7386]", "gcPBM binding intensity (ln)": "8.61 ± 0.45"}, {"sequence": "TATTCATTTATAAGCTGTACACATTAATTTGAGCTA [XGTACX_site3616]", "gcPBM binding intensity (ln)": "8.73 ± 0.36"}, {"sequence": "ATATAGTATTAATTTGCATGTCATGTATTAGGTCGA [TGCATGCA_site540]", "gcPBM binding intensity (ln)": "8.78 ± 0.4"}, {"sequence": "TGTAAGTTGATATAATGTACATGTTTGATTTTTTTT [XGTACX_site7687]", "gcPBM binding intensity (ln)": "8.71 ± 0.47"}, {"sequence": "TTTTATATTTTTTGTGGTACATTTAGAGAACCAAAA [XGTACX_site1695]", "gcPBM binding intensity (ln)": "8.12 ± 0.4"}, {"sequence": "TTTATAAACAAATGAACACACAAACATATATATATA [CACACA_site5713]", "gcPBM binding intensity (ln)": "9.33 ± 0.24"}, {"sequence": "CTATTATAATATTTTACACACCATGTAAGATATATA [CACACA_site7492]", "gcPBM binding intensity (ln)": "8.74 ± 0.43"}]}]}
